Whole data set: some 33,000 sequences, median “E-score (-0.5 to 0.5)” near -0.053, cut for the highest 2% near 0.37. Some of the results follow.
molecular target: Hap1 (UniProt P0CE41); assay: PBM E-score (8-mer binding enrichment) (E-score (-0.5 to 0.5)); higher = stronger / more preferred TF binding; most listed sequences are background and not binding sites; conditions: protein concentration: 200 nM; construct: GST-DNA-binding domain
How it was run: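 GST-tagged yeast TFs (full-length or DNA-binding domain) were made by PURExpress in vitro transcription/translation and applied at about 100-200 nM to universal all-10-mer Agilent arrays. The arrays were made double-stranded by primer extension, on fresh or once-stripped slides. Bound protein was detected with fluorescent anti-GST, and scans were normalised with masliner. Each ungapped eight-base word, pooled with its reverse complement, received an E-score (modified Wilcoxon-Mann-Whitney statistic) from the Universal PBM Analysis Suite.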

UniProt P0CE41, sequence (P0CE41 whole entry, the tested form may be a part): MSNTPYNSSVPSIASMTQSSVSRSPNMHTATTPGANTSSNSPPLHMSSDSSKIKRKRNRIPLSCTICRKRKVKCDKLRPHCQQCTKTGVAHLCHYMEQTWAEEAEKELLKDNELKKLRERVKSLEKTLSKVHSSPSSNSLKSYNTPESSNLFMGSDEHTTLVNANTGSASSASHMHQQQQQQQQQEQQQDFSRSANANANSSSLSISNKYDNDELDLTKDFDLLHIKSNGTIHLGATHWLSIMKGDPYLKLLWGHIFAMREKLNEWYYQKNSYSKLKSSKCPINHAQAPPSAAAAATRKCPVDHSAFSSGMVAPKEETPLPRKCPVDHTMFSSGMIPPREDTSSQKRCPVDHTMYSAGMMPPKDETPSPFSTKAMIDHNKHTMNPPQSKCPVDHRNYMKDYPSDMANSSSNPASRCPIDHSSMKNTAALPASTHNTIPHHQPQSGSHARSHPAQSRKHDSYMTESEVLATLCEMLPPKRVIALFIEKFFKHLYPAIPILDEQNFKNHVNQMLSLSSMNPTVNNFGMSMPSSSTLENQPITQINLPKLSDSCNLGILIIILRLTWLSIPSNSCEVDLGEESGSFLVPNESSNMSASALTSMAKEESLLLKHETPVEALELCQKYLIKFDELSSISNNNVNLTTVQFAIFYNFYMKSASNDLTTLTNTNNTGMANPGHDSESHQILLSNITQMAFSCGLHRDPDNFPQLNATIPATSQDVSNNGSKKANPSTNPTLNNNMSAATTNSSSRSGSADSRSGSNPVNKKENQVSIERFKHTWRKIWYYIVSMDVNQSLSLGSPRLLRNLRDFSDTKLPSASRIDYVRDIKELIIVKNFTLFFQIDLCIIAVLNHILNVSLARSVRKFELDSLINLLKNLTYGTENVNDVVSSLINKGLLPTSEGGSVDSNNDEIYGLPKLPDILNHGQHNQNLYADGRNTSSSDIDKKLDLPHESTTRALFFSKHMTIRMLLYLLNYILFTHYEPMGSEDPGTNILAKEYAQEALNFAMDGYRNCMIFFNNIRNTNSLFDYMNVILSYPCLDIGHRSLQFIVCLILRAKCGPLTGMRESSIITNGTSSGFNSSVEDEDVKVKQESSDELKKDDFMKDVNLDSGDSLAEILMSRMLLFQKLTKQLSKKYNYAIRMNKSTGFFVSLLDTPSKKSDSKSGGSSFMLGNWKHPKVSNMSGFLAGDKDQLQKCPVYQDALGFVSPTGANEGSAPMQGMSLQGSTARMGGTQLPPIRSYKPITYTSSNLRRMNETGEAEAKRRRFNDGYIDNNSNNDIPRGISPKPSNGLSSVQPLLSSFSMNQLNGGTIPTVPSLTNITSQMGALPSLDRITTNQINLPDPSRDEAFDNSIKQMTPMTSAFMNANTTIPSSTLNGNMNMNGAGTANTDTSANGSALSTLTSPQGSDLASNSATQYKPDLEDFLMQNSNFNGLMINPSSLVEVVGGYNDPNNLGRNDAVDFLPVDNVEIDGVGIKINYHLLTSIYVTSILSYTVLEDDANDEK

Point of comparison: GCTGGGTA, “PBM E-score” value -0.163. Against it:
- ACAGTGAT — higher, -0.158
- CCGATAAC — higher, 0.447
- AATGCGGG — higher, 0.193
- CAGACATC — higher, -0.065
- ATGGAAGC — higher, -0.0553
- GTTTTGAA — lower, -0.168
- GGCGGTAA — higher, 0.373
- CCAAGTGA — higher, -0.13
- ATCGCACC — higher, 0.103
- AAGGTTCC — higher, 0.00065
- GGCGTACC — higher, 0.179
- TAACGGTA — higher, 0.116
- TACTTTGA — lower, -0.271
- GGGTCCGA — higher, 0.38
- GGATCGCA — higher, -0.0125
- CCAGGAGA — higher, -0.0815
- CATGGAGA — higher, -0.0788
- CCTGATAA — higher, -0.158
- CCCCTAAA — higher, -0.0343
- CAGGCTGC — lower, -0.319
- GTATTAAA — higher, 0.0705
- CCTAACAA — lower, -0.247
- CATCGCTC — higher, 0.154
- TTGTCAAA — higher, -0.0715
- GTACTCAC — lower, -0.18
- AAGTAAAG — higher, 0.00599
- TAGGTAGA — higher, -0.104
- ATTCCCAG — higher, 0.136
- CCTTCAAA — higher, -0.0271
- CGTCTCTA — higher, -0.0739
- ATATGCTA — higher, -0.044
- GCAAATAA — higher, 0.152
- AACCGTCA — higher, 0.0148
- CTGGCGAC — lower, -0.183
- AACCTTCG — higher, 0.11
- CTTGAATA — higher, -0.0894
- CCTCCCAA — the same, -0.163
- ACGCTGCT — lower, -0.21
- GAACTAGA — higher, -0.0376
- GGAGGAGA — higher, 0.0576
- CAAATTGC — higher, -0.055
- CCGGTGAC — higher, 0.315
- ACTAGCAC — lower, -0.17
- CTCCGATA — higher, 0.432
- AGTTGTAA — lower, -0.205
- ATTTTATA — higher, 0.103
- GCTTCTAC — higher, -0.152
- AGCAATGG — higher, 0.016
- ATGGTGAG — lower, -0.179
- GACCAGTC — higher, -0.119
- AGGACAGA — lower, -0.241
- AGGAATGA — higher, -0.0117
- GTGCGACA — higher, -0.138
- AGTTAGTC — higher, 0.0274
- ACGCAAGT — lower, -0.231
- CGTATCGA — lower, -0.196
- CGTGGGCA — lower, -0.295
- CGTGAGAA — higher, 0.00234
- AACATTGA — higher, -0.111
- CCACTCGA — higher, -0.103
- CGCGGGAC — higher, 0.217
- CATGGCAC — higher, 0.178
- CACTTCCG — higher, 0.191
- GGCTAGTA — higher, -0.0702
- AGTTAGGA — higher, -0.104
- ACTTCCCG — higher, 0.224
- ACCCTCGT — higher, -0.113
- AATTGCGC — higher, 0.253
- CATGGTAA — lower, -0.168
- ACGTATAC — higher, -0.0716
- CTTTCCAC — higher, 0.0633
- ACCCCCCT — lower, -0.248
- CAACAATA — higher, -0.13
- TACTGTCA — lower, -0.181
- AGGATTCA — higher, -0.12
- CTGGAGTC — lower, -0.208
- CTCCAAGA — lower, -0.276
- CTACCGAA — higher, 0.0576
- CGCCTAAC — higher, 0.00163
- GCTAGTGA — higher, -0.111
- CCGGTTAG — higher, 0.308
- CGGCGCAG — higher, 0.136
- ACCCTCAT — lower, -0.181
- AGTACCAC — higher, -0.148
- AACGAGTG — lower, -0.214
- TAACAGGA — higher, -0.161
- ATACTCCG — higher, 0.407
- GCCGATAC — higher, 0.417
- CGAAATGC — higher, 0.186
- CACGCATC — higher, 0.113
- GGAGTTTA — higher, 0.336
- AACGTTCC — higher, 0.105
- CTTGAGAA — lower, -0.33
- ATTTCGTA — higher, -0.104
- CCCCGCCC — higher, 0.303
- AACTTCTC — higher, -0.0545
- CCGATTTC — higher, 0.307
- ATACCAAA — higher, -0.00671
- ATGCACTC — higher, -0.114
- ACAGATAG — lower, -0.219
- AACAGTAT — lower, -0.256
- ACTTATGG — higher, 0.111
- CCATTGAG — higher, -0.0522
- ATACCGCG — higher, 0.21
- ATTTATTG — higher, -0.063
- ATAGAAAG — higher, -0.0625
- GTTGGACA — higher, -0.116
- GAGCGCTC — higher, 0.022
- TACTATGA — lower, -0.164
- AGTCGGAC — higher, 0.318
- GTTGCCTA — higher, 0.0253
- CTGCCGCC — higher, -0.104
- CAAGTTGA — higher, -0.0848
- GACCATCA — higher, 0.034
- AAAGTTAA — higher, -0.0461
- AAGTAAGT — higher, -0.0777
- AACGGCAG — higher, 0.0221
- ACTTATAC — higher, 0.0348
- ATTGTGTC — higher, -0.0663
- CAATTCTC — higher, -0.0428
- GATCTCGC — higher, -0.00807
- CCCATAAG — higher, -0.026
- AGCCTCCT — higher, -0.13
- ACCCTAGG — lower, -0.234
- AATGGCTA — lower, -0.17
- GGGTATGA — higher, 0.0413
- CCAAAAGA — higher, -0.0792
- AGGCGAGC — lower, -0.172
- CACCGACG — higher, 0.36
- GTTAGCAA — higher, -0.0968
- AAATGAGC — higher, -0.0835
- ATATCCAC — higher, -0.00436
- CGTACCTC — higher, -0.0658
- ATTCGGCG — higher, 0.278
- AGGCGTAT — lower, -0.311
- CAACGCAA — higher, -0.0686
- GGCGAACA — higher, 0.0613
- ACATGGGG — higher, -0.109
- CCCGGCGG — higher, 0.301
- CGTCGTCC — higher, 0.227
- GCTAACAC — higher, -0.0478
- AGATACAC — higher, -0.0669
- ACCGGGCT — higher, 0.334
- GATTCGAA — higher, 0.0746
- GCCGATCA — higher, 0.263
- ACTAATTA — higher, -0.0758
- CACCATCC — higher, 0.0474
- AGATTGCT — lower, -0.232
- CATCACAC — higher, -0.105
- AAATCAGC — higher, -0.0987
- GAACAATC — higher, 0.13
- CATGCAGG — lower, -0.252
- CTTCGCCC — higher, 0.228
- AGTGATGC — lower, -0.21
- GTTGAATA — higher, 0.00984
- CCAACCGG — higher, 0.261
- AGTTCCTC — higher, -0.0498
- TGGACCAA — higher, -0.0209
- ATAGACAC — lower, -0.248
- AAGATACA — higher, -0.132
- AAGAAGTA — higher, -0.0966
- ATATGGGG — higher, 0.032
- AGAGAGCG — higher, 0.0503
- CACCAAGC — lower, -0.174
- CAGTCCCC — higher, -0.149
- ATGGGGGC — lower, -0.174
- GGTCTGTA — higher, -0.0296
- CACAAATG — lower, -0.287
- ACTAGACG — lower, -0.238
- GTACGGCA — higher, -0.0308
- GCGGACCC — higher, 0.266
